Assay [1] addresses Estrogen receptor (Homo sapiens) (UniProt P03372). Kind of assay: qHTS assay for small molecule agonists of estrogen receptor alpha signaling (AID 588514). Further: nearly all actives have a fitted effect of over 70% in size. Further: potency means the concentration at half of the fitted maximal effect. The following applies: ER-alpha-UAS-bla HEK293, beta-lactamase ratio, 18 h; series mostly up to 76.8 µM. The source says: NIH Chemical Genomics Center [NCGC]
U.S. Environmental Protection Agency [EPA]
National Institutes of Environmental Health Sciences [NIEHS]
National Toxicology Program [NTP]
Estrogen receptor alpha (ER-alpha) is an important member of nuclear hormone receptors. ER-alpha plays important role in breast cancer as well as in other women's health issues. The majority of breast cancers is estrogen receptor (ER) positive and depends on estrogen for growth. There is also growing concern for some of environmental chemicals which may contribute the increasing the incidence of breast cancer. Therefore, it is important to understand the effect of environmental chemicals in ER-alpha signaling pathway.
NCGC Assay Protocol Summary
Using a beta-lactamase reporter-gene under control of the ER response element, a cell-based assay [ER-alpha-UAS-bla GripTiteTM cell-Based Assay from Invitrogen] was used to measure ER-alpha signaling pathway in agonist mode. ER-alpha-UAS-bla-GripTite HEK 293 cells were used with assay medium containing 2% charcoal/dextran treated FBS, 0.1 mM NEAA and 1 mM sodium pyruvate. Cells were cultured in this assay medium overnight in the flasks before the assay. […] Library compounds were measured for their ability to either stimulate the reporter gene activity. […]
8. Detection; Fluorescence; Envision plate reader or Acumen plate reader
On the technique in general: qHTS replaces the single test concentration by a dilution series.

Assay [2] concerns the target Retinoic acid receptor RXR-alpha (Homo sapiens) (UniProt P19793). Kind of assay: qHTS assay for small molecule antagonists of retinoid X receptor alpha signaling (AID 588546; active means well fitted inhibition curve with a large enough effect in the signal ratio, with a control signal flat, not every such curve was filed as active; the % refers to the signal ratio; further: on the % scale 0 is the no-effect control and ±100 the full control effect). The note with it: HEK293T RXRa-UAS-bla, beta-lactamase ratio, antagonist mode. Put shortly: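 Beta-lactamase reporter inhibition, read as CCF4 fluorescence ratio (ex 405, em 460/530 nm) after 2 h at RT. HEK293T UAS-bla cells, 2500/well, were stimulated with 9-cis-RA at 500 or 100 nM final alongside test compound for 18 h at 37 C.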
Chain of UniProt P19793 (P19793 whole entry, looked up): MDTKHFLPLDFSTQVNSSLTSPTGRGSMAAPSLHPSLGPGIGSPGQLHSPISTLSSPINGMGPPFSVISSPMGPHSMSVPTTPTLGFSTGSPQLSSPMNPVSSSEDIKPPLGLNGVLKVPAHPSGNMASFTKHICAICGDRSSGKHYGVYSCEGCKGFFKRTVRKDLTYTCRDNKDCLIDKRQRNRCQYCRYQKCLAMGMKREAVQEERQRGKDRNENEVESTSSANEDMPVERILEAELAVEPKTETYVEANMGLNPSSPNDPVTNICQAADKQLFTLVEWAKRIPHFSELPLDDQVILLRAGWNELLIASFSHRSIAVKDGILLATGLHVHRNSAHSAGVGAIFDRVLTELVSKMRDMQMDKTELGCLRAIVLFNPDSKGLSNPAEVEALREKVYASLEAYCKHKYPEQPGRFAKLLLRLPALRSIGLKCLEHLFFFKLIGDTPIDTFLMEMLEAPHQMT

Assay [3] deals with Thyroid hormone receptor beta (Homo sapiens) (UniProt P10828). Kind of assay: qHTS assay for small molecule antagonists of thyroid hormone receptor beta signaling (AID 588547; active means well fitted inhibition curve with a large enough effect in the signal ratio, with a control signal flat, not every such curve was filed as active; the % refers to the signal ratio;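 further: cells stimulated with 0.4 nM T3 agonist during compound exposure; on the % scale 0 is the no-effect control and ±100 the full control effect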). The following applies: TR-UAS-bla HEK293, beta-lactamase ratio, antagonist mode, 18 h. Put shortly: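 Inhibition of T3-driven (0.4nM final) beta-lactamase reporter activity was measured over 0.59 nM to 92 uM compound after 18 h at 37 C. The cells were GripTite HEK293 TR-UAS-bla in charcoal/dextran-stripped serum, with CCF4 ratio read-out and IC50 from Hill fits.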
Chain of UniProt P10828 (P10828 whole entry, looked up): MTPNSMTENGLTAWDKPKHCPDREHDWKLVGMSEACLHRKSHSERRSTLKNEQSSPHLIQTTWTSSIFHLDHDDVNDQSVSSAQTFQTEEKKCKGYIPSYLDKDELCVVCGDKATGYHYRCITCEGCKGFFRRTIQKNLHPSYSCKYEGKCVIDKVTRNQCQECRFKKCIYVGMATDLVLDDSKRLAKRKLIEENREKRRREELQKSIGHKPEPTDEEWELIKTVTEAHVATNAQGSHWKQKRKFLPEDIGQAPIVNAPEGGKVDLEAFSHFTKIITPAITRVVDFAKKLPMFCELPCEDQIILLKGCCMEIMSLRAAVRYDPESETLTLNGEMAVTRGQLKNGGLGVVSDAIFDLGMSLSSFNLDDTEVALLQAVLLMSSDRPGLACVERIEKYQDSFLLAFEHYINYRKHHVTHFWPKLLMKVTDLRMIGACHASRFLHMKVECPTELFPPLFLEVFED

Inconclusive results are not listed. Unless noted, the call rests on the fitted dose curve. For part of its entries the source gives two or more results. This list holds those alone. There may be further records. The values listed for one entry are repeated measurements in other runs, samples, wells, individuals or studies. A structure can be active in one record and inactive in another. Records carry a tag for their origin. Letters hold for one entry only.

Chain of UniProt P03372 (P03372 whole entry, looked up): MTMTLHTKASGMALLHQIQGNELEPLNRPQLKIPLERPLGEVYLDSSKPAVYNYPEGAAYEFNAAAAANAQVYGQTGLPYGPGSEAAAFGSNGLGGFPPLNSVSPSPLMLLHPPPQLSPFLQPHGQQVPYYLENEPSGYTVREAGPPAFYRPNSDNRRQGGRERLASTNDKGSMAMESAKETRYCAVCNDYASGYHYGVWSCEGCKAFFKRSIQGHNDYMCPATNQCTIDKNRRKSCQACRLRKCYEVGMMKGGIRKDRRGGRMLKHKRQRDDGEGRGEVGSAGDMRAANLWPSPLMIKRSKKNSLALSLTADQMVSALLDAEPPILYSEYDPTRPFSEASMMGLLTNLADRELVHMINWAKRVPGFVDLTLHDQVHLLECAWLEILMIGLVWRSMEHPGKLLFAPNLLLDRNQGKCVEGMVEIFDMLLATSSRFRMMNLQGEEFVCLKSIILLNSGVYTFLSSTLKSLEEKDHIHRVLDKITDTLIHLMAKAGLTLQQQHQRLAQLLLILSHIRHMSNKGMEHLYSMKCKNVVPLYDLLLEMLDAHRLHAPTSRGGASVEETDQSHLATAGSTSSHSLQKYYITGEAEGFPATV

Consider `CC12CCC(CC1=O)C2(C)C` (centres undefined), for which, in assay [1], the Potency result was “inactive [sample A] and active: 2 µM [sample B]”.

In the case of `COC(=O)c1ccc(C)cc1`, the Potency result in assay [1] was “inactive [sample A] and active: 8.91 µM [sample B]”.

`c1ccccc1`: in assay [2], the max response result is “inactive: 19.6, 4.36, -4.31, -25.3% [separate samples]”. Also, in assay [3], the activity change % (negative = inhibition) result was “inactive: 3.35, -3.59, 9.19, -24.6% [separate samples]”.

The record behind these values is PubChem BioAssay (NCATS).
